Source: PubChem BioAssay AID485344 (National Center for Advancing Translational Sciences (NCATS), 2010)
In all, about 340,000 compounds went through this assay and about 6,900 (2%) were called active. Cut-off read from the data, not from the text of the source: active = inhibition above about 30%; inactive = below that, where a call was filed. The entries are a selection whose mix differs from that of the whole data set. Where no call is shown, the source filed none.
Note: 0% is about no effect.

Each compound was assayed against D(2) dopamine receptor (Homo sapiens) (UniProt P14416) (assay: HTS Assay for Allosteric Antagonists of the Human D2 Dopamine Receptor: Primary Screen for Antagonists). Settings: HEK293 TREx D2 cells, calcium flux, dopamine EC80; at 10 µM; stronger effect = higher value.
Chain of UniProt P14416 (P14416 whole entry, looked up): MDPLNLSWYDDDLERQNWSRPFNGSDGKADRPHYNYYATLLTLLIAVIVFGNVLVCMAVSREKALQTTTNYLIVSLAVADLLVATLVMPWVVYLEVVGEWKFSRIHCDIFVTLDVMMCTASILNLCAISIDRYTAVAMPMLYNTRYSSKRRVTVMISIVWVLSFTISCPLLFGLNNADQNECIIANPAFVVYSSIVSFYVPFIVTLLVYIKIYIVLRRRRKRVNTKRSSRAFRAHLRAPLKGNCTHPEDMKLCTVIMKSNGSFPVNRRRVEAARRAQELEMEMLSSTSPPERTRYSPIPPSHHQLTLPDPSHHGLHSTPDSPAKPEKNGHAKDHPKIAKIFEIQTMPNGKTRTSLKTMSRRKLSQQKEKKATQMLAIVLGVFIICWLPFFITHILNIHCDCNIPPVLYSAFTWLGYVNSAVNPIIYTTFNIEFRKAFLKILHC
Outline: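 Compounds are added to dye-loaded, induced HEK293 T-REx cells coupled to calcium release via D2; after a 3 min kinetic read an EC80 dopamine stimulus is given and fluorescence is recorded for 3 more min.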
Compound `CCn1cc(S(=O)(=O)c2ccccc2)c(=O)c2cc(F)c(N3CCN(c4ccccc4)CC3)cc21` has an inhibition of -2.41%. `CCN(CC)C(=O)c1sc2c(c1C)c(=O)n(-c1ccc(OC)cc1OC)c(=O)n2CC(=O)c1ccc(Cl)cc1` gave an inhibition of -14.6%. `Nc1cc(Cl)nnc1Cl` was tested, and the inhibition was active: 35.8%. In the case of `CCOc1ccc(N(C(C)C(=O)Nc2cc(Cl)ccc2OC)S(C)(=O)=O)cc1` (stereo unspecified), the inhibition is reported as 5.16%. For `COc1cc(NC(=O)c2oc3c(c2C)-c2nn(Cc4cccc(Cl)c4)cc2CC3)cc(OC)c1`, the inhibition was 1.16%. In the case of `O=C(Nc1ccc(OC(F)(F)F)cc1)C1CCN(S(=O)(=O)c2cccs2)CC1`, the inhibition is reported as -9.43%. Work on `COc1cc(NC(=O)COCc2cc(-c3ccc4c(c3)OCO4)on2)cc(OC)c1` yielded an inhibition of -12.6%. `COc1ccc(CCN2C(=O)NC(NS(=O)(=O)c3ccc(NC(C)=O)cc3)(C(F)(F)F)C2=O)cc1OC` (stereo unspecified) was tested, and the inhibition was -8.7%. In the case of `CC(=O)Nc1ccc2nc(SCCOc3cc(C)cc(C)c3)sc2c1`, the inhibition is reported as -2.27%. With `CC(=O)N1c2ccc(S(=O)(=O)NCC3CCC(C(=O)Nc4cc(C)ccc4C)CC3)cc2CC1C` (stereo unspecified) the inhibition was -4.14%. In the case of `COc1cc(NC(=O)c2c(C)oc3c2C2=NCCN2C=N3)cc(OC)c1OC`, the inhibition is reported as 2.95%. Compound `CCc1ccc(-c2nn(CC(=O)NCc3ccccc3)c3c2cnc2ccc(F)cc23)cc1` has an inhibition of 8.94%. Compound `COc1ccc(OCC(=O)NCc2ccc3c(c2)CCN3C(=O)c2ccc(F)cc2)cc1` has an inhibition of -20.6%. For `O=C(CN1CCN(c2ccccc2O)CC1)NC(c1ccccc1)c1ccccc1`, the inhibition was active: 64.1%. `CCC1CCCCN1CCCNC(=O)c1cc2c(=O)oc3ccc(C)cc3c2s1` (stereo unspecified) was tested, and the inhibition was active: 35.5%. `CCN(CC)S(=O)(=O)c1ccc(C(=O)N2CC(=O)Nc3ccc(F)cc3C2c2ccccc2)cc1` (stereo unspecified) was tested, and the inhibition was -2.84%. In the case of `CC(C)(C)OC(=O)N1CCC(c2c(C(=O)NCCc3ccccc3)cnn2-c2ccc(F)cc2)CC1`, the inhibition is reported as 1.95%. `O=C(C1CCN(S(=O)(=O)c2ccc(Br)s2)CC1)N1CCN(c2ccccc2)CC1` was tested, and the inhibition was -12.7%. In the case of `O=C1/C(=C/c2ccc(F)cc2)SC(=S)N1CCCC(=O)N1CCCCC1CCO` (stereo unspecified), the inhibition is reported as active: 31.6%. With `CCc1ccccc1NC(=O)C1(C)Cc2ccccc2C(=O)O1` (stereo unspecified) the inhibition was -1.55%. Compound `O=S(=O)(NCC(c1cccs1)S(=O)(=O)c1ccccc1)c1ccc(F)c(C(F)(F)F)c1` (stereo unspecified) has an inhibition of -2.74%. In the case of `COc1ccc(-c2[nH]c(-c3cccc(OC)c3)nc2SCC(=O)NC2CCCC2)cc1`, the inhibition is reported as 10.5%. For `CCN(Cc1ccccc1)S(=O)(=O)c1cc(C(=O)Nc2cc(Cl)cc(Cl)c2)ccc1F`, the inhibition was -3.31%. With `CC(C)(C)C1CCc2c(sc(NC(=O)c3ccc(Cl)cc3)c2C(=O)NCc2ccco2)C1` (stereo unspecified) the inhibition was 1.91%. Compound `COc1ccccc1N1CCN(c2ncnc3c2cnn3-c2cccc(Cl)c2)CC1` has an inhibition of 8.91%. Compound `COc1ccc(-c2cn3nc(N4CCCC(C(=O)Nc5cc(C)cc(C)c5)C4)sc3n2)cc1` (stereo unspecified) has an inhibition of -6.89%. `CCCc1cc(C(=O)Nc2c(C)nn(Cc3c(Cl)cccc3Cl)c2C)no1` gave an inhibition of 14.3%. Compound `COC(=O)c1ccc(OCC2c3cc(OC)c(OC)cc3CCN2C(=O)Cc2ccccc2)cc1` (stereo unspecified) has an inhibition of -22.8%. `Cn1cnnc1SCC(=O)Nc1ccc(C#N)cc1` was tested, and the inhibition was -4.82%. Work on `CN(CC(=O)NCc1ccccc1)S(=O)(=O)c1ccc2[nH]c3c(c2c1)CCCC3` yielded an inhibition of 19.5%. `COc1cc(C(=O)Nc2ccc(S(=O)(=O)NC(C)C)cc2)cc(OC)c1OC` was tested, and the inhibition was active: 30.9%. Compound `Cc1cc(Nc2nc3ccccc3c3nnc(C)n23)ccc1Br` has an inhibition of 1.97%. For `Cc1cc(C)cc(NC(=O)CSc2c(C(C)C)cnc3c2c(=O)n(C)c(=O)n3C)c1`, the inhibition was -3.09%. `Cc1cc(C)cc(Nc2cc(C(=O)NC3CCCCC3)c3ccccc3n2)c1` showed an inhibition of -12.2%. In the case of `COc1ccc(C)cc1NC(=O)c1cc(S(=O)(=O)N2CCC(C)CC2)ccc1F`, the inhibition is reported as 8.11%. Compound `CCOC(=O)c1ccccc1NC(=O)CSc1nnc(CC)n2c1cc1occc12` has an inhibition of 17.2%. With `CCCCc1ccc(C(=O)Nc2ccc3nc(N4CCN(CC)CC4)cc(C)c3c2)cc1` the inhibition was -0.053%. With `CCOC(=O)c1cc(C)n(CC2CCC(C(=O)Nc3ccc(OC)cc3)CC2)c1C` (stereo unspecified) the inhibition was -6.35%. For `Fc1ccc(-c2cc3ncc4c(n3n2)-c2cc(Cl)ccc2OC4)cc1`, the inhibition was -14.3%. `COc1ccc(CCNc2ncnc3c2c(-c2ccccc2)cn3-c2ccc(Cl)cc2)cc1OC` was tested, and the inhibition was 8.21%. With `Cc1ccc(C(=O)Nc2ccccn2)cc1S(=O)(=O)N1CCOCC1` the inhibition was active: 34.9%. For `CCOC(=O)CSc1nc2ccc(NC(=O)c3ccc(Cl)cc3)cc2s1`, the inhibition was 3.46%. With `COc1cccc(-c2nc(CS(=O)(=O)CC(=O)Nc3cccc(C(C)=O)c3)c(C)o2)c1` the inhibition was 5.39%. Compound `COc1cc(CN(C(=O)c2ccc(OC(C)C)cc2)c2ccccn2)cc(OC)c1OC` has an inhibition of -0.374%. For `CCCC(=O)C1=C(O)C(C(=O)OC)C(C)(C)CC1=NC(C)C` (stereo unspecified), the inhibition was active: 32.7%. Work on `COC(=O)c1ccc(NC(=O)C2CCN(c3ncnc4c3nc3n4CCCCC3)CC2)cc1` yielded an inhibition of 5.58%. `COc1ccccc1-c1nnc(C2CCN(C(=O)c3ccccc3C)CC2)o1` gave an inhibition of 10.2%. `COc1ccc(N(CC(=O)Nc2cc(OC)cc(OC)c2)S(=O)(=O)c2c(C)noc2C)cc1` gave an inhibition of 14.4%. With `Cc1cccc(-n2c(C)cc(C(=O)C(=O)Nc3nncs3)c2C)c1` the inhibition was -13.4%. In the case of `Cc1ccc(O)c(NC(=O)CCS(=O)(=O)c2nc(-c3cccs3)cc(C(F)(F)F)n2)c1`, the inhibition is reported as -6.43%. For `Cc1ccc(C(C)C)c(OCC(=O)Nc2cc(-c3nc4ccccc4[nH]3)ccc2C)c1`, the inhibition was 18.1%. Compound `COc1ccccc1NC(=O)c1cc2c(=O)n(Cc3cccs3)ccc2nc1C` has an inhibition of -0.167%. For `COc1ccccc1N1CCN(CCCCCCOc2ccc(F)cc2)CC1`, the inhibition was active: 81.1%. `CCc1ccccc1NC(=O)c1cc(-c2ccc(Cl)s2)nc2ccccc12` was tested, and the inhibition was 7.72%. `Cc1oc(-c2ccccc2F)nc1Cn1c(SCc2cccc(C(F)(F)F)c2)nc2ccncc21` showed an inhibition of -9%. `O=C(Nc1ccccc1F)c1cnc(N2CCCCC2)c2ccccc12` gave an inhibition of -28.6%. With `CCC(=O)Nc1cc2c3c(c1)CCN3C(=O)CC2` the inhibition was active: 32.9%. `CCOc1ccccc1NC(=O)Cn1c(=O)n(Cc2ccc(OC)cc2)c(=O)c2oc3ccccc3c21` gave an inhibition of 8.13%. With `O=c1c2cccnc2[nH]c(=S)n1CCCN1CCN(c2ccc(F)cc2)CC1` the inhibition was active: 101%. `COc1ccc(C(C)=O)cc1COC(=O)Cc1n[nH]c(=O)c2ccccc12` was tested, and the inhibition was active: 33.1%. `COc1ccc(OC)c(CNC(=O)CCCn2c(=O)c3cccn3c3cccnc32)c1` gave an inhibition of 15.1%. With `S=c1[nH]nc(C2CCCCC2)n1/N=C/c1ccc(Br)cc1` the inhibition was active: 36%. `CCOC(=O)c1sc2ncn(CC(=O)Nc3ccc(F)cc3F)c(=O)c2c1C` showed an inhibition of -3.33%. `COC(=O)c1c(NC(=O)c2ccc(Cl)c(Cl)c2)sc2c1CCCC2` showed an inhibition of -7.67%. Compound `CCOc1ccc(NC(=O)CSc2nnc3scc(-c4ccccc4)n23)cc1` has an inhibition of 0.932%. `COc1ccc(-c2onc(C)c2C)cc1S(=O)(=O)NCc1cccs1` was tested, and the inhibition was -4.96%. `CCOC(=O)c1noc2ncn(CC(=O)Nc3ccc(F)cc3Cl)c(=O)c12` was tested, and the inhibition was -0.269%. `CCOc1ccc(C(=O)Nc2ccc3c(c2)CCCN3S(=O)(=O)c2ccc(C)cc2)cc1` showed an inhibition of -9.3%. `CC1CCCCN1Cc1c(O)ccc2c(=O)c(-c3ccc(Cl)cc3)c(C(F)(F)F)oc12` (stereo unspecified) gave an inhibition of -2.75%. Work on `CC1=C(C(=O)OCc2ccc(C)cc2)C(c2ccccc2C(F)(F)F)CC(=O)N1` (stereo unspecified) yielded an inhibition of 3.88%. In the case of `Cc1ccc(OCCSc2nc3ccccc3n2CC(=O)N2CCOCC2)cc1`, the inhibition is reported as 5.78%. Compound `COc1ccccc1N1CCN(C(=O)Cn2ncc3c2-c2cc(C)ccc2OC3)CC1` has an inhibition of 1.28%. For `COc1ccc(Nc2nc3ccc(C)cc3nc2-n2nc(C)cc2C)cc1Cl`, the inhibition was 10.4%. Work on `COCCN1CCc2nc(SCC(=O)Nc3ccc(C)c(Cl)c3)[nH]c(=O)c2C1` yielded an inhibition of 10.9%. `COc1ccccc1NC(=O)CC1Sc2ccc(C(F)(F)F)cc2NC1=O` (stereo unspecified) showed an inhibition of -5.91%. `Cc1cc(C)nc(SCc2cn3ccccc3n2)n1` was tested, and the inhibition was active: 38.3%. For `CCOc1ccccc1CNC(=O)Cn1c(=O)c2cccn2c2ccc(F)cc21`, the inhibition was -15.5%. `O=C1CC(c2ccc(OCCCCCOc3ccc(C4CC(=O)NC4=O)cc3)cc2)C(=O)N1` (stereo unspecified) was tested, and the inhibition was active: 36.6%. With `CC1=C(C(=O)NCc2cccc(F)c2)C2(CCCCCC2)OC1=O` the inhibition was -1.18%. In the case of `COc1ccc(CNC(=O)c2cc(-c3ccc(Br)s3)nc3ccccc23)c(OC)c1`, the inhibition is reported as -7.55%. In the case of `Cc1cccc(CN2CCN(c3ncccn3)CC2)c1`, the inhibition is reported as active: 82.8%. In the case of `COC(=O)Nc1nnc(/C=C/c2ccc(OC)cc2)s1`, the inhibition is reported as active: 30.7%. With `O=C(C[n+]1ccc(-c2ccccc2)cc1)Nc1ccc([N+](=O)[O-])cc1` the inhibition was active: 36.9%. `CCc1nc(SC)ncc1C(=O)NCc1cccc(Br)c1` gave an inhibition of 16.8%. `O=C(Cn1nc(Cc2cccnc2)c2ccccc2c1=O)N1CCN(c2ccccc2F)CC1` showed an inhibition of 6.41%. `COc1ccc(CNC(=O)c2ccc(CN3C(=O)C(C)=C(c4ccc(C)cc4)S3(=O)=O)cc2)cc1` was tested, and the inhibition was -1.62%. `Cc1cc(O)c2c(C)c(CC(=O)NCc3ccccc3Cl)c(=O)oc2c1` gave an inhibition of -2.51%. Compound `O=C(NCCSc1c[nH]c2ccccc12)c1ccc(Cl)cc1` has an inhibition of -11.7%. For `O=C(NCCc1ccccc1)c1ccc2c(c1)N(Cc1ccc(Cl)cc1)C(=O)c1ccccc1S2(=O)=O`, the inhibition was 0.0422%. With `COc1ccc(Cn2c(SCc3ccc(C(=O)NCc4ccc(C)cc4)cc3)nc3cccnc32)cc1` the inhibition was -6.7%. Work on `Cc1ccc(C2=Nc3ccccc3N=C(c3ccc(F)cc3)C2)c(O)c1` yielded an inhibition of -12.7%. For `CCN(c1ccccc1C)S(=O)(=O)c1nnc(NC(=O)c2ccc(OC)c(OC)c2)s1`, the inhibition was 11.8%. For `COc1ccc(CNC(=O)CN2N=C(c3ccc(Cl)cc3)CCC2=O)cc1`, the inhibition was -9.81%. Compound `COc1ccc(-c2nn(C)c3sc(C(=O)NCCN(C)C)cc23)cc1OC` has an inhibition of -1.37%. Compound `Cc1cc(C)c(NC(=O)Cn2c(=O)n(CCC(C)C)c(=O)c3cccnc32)c(C)c1` has an inhibition of 1.64%. In the case of `CN(c1ccc(C(=O)N2CCN(Cc3ccccc3)CC2)cc1)S(=O)(=O)c1ccc(Cl)cc1`, the inhibition is reported as active: 89.9%.
